The source of these data is the supplement of paper PMC11417369.

± gives the standard deviation of the averaged measurements. This is one part of the list.

For this assay, the system named is PfAP2-G AP2 domain (GST-tagged). Put plainly: gcPBM binding intensity (ln(normalized median fluorescence intensity)); higher = stronger DNA binding. A digest of the protocol: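 GST-fused DNA-binding domains of P. falciparum, expressed in E. coli, were applied at about 25 μg on average for 1 h to an Agilent 4 × 180k array of primer-extended double-stranded 36-bp intergenic genomic probes and negative controls. Binding intensity is the highest Masliner-normalised natural-log median intensity across replicate spots of either probe orientation, measured with Alexa488 anti-GST antibody and a 488 nm scan.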
Consider “TTTTGCTTTTTTTTTCTTTTTTGTTTTATATATATT [CACACA_negctrl_site103]”, for which the “gcPBM binding intensity (ln)” value was 9.64 ± 0.071.
For “ACATATGGTATTTAAACACACAAAAAAGAAAGAAAA [CACACA_site991]”, the “gcPBM binding intensity (ln)” value turned out to be 10.1 ± 0.21.
For “TATAAACCATAATTAACACACAAAATAAGTTACATA [CACACA_site3227]” the value was 9.995 ± 0.049; for “ATAATAATAAAAATTATACATAAGTATATGCACATA [XGTACX_negctrl_site583]”, 9.8 ± 0.014.
With “CACAAATAAATACATACACACATATATACTCATATA [CACACA_site4379]”, the “gcPBM binding intensity (ln)” value was 10.03 ± 0.064.
As for “TTATAAAGAACACAGACACACAAAGAAAGAACCAAT [CACACA_site4175]”, the “gcPBM binding intensity (ln)” value is 10.4 ± 0.37.
Under “TTTTGTCAATTTTAGATTTTTCAATACATGGATATT [CACACA_negctrl_site319]” stands 9.76 ± 0.014; under “ATATATATATATTTATGTACGAATATGTTTAATTTA [XGTACX_site3986]”, 10.7 ± 0.57.
“ATATATATAATAATATGTACGGAAAAAGCTTAAGCT [XGTACX_site5661]”: the “gcPBM binding intensity (ln)” value was 11.1 ± 0.67.
For the sequence “AAATATATATATTTACGTACATATATACAAATAGAG [XGTACX_site6067]”, the “gcPBM binding intensity (ln)” value is 11.4 ± 0.81.
With “TGGGCGTCATAATGAACACACAATTATATTATGACT [CACACA_site3910]”, the “gcPBM binding intensity (ln)” value turned out to be 9.965 ± 0.078.
On to “TTACACAAATAGCTGCATTTATAAAATACAATTAAA [CACACA_negctrl_site241]”, for which the “gcPBM binding intensity (ln)” value came out at 9.72 ± 0.13.
Consider “TTTCCTTCTACAAAAAATTTTATCAAGAGGAAGTAC [CACACA_negctrl_site926]”, for which the “gcPBM binding intensity (ln)” value was determined as 10.7 ± 0.38.
For “AAAAATAAAGAAACAGGTACGCATATATTAAGATAT [XGTACX_site8097]” the value was 11.1 ± 0.58; for “AATATATTCCACATGTGTACATATATATATATATAT [XGTACX_site8006]”, 11.4 ± 0.86; for “ATATGCAAAGAGTATAATCAAAATGTAAATAAATAA [GTGCAC_negctrl_site141]”, 9.925 ± 0.007.
For “AATATTATTTATATTTGTACACAGTAATATAAAATA [XGTACX_site4884]” the value was 11.1 ± 0.68.
“CCATAGATATTTTATACACACATATAATATATTAAG [CACACA_site4363]”: the “gcPBM binding intensity (ln)” value amounted to 10.1 ± 0.17.
For TGTCACTACAAATGAGTGCATTAAATAATTTGGAAA, the “gcPBM binding intensity (ln)” value amounted to 10.08 ± 0.042.
For TTCTAACTCTAACAAGTGCAATATATATACATAATA the value was 10.1 ± 0.18; for “AAATTTGGCAAACACACACACACACCCACACCCACA [CACACA_site8095]”, 10.4 ± 0.36; for “AGTTTATTTGTAAAAAGTACATATTTAAGAAAACTT [XGTACX_site2318]”, 11.2 ± 0.83.
“AATATATATCATCACACACACATACATAAATATATA [CACACA_site184]”: the “gcPBM binding intensity (ln)” value came out at 10.1 ± 0.21.
Take “TTTTTTTTTTGATGTTGTACATATATACTATATAAT [XGTACX_site1332]”: the “gcPBM binding intensity (ln)” value came to 11.3 ± 0.7.
For “TATATTATATATATGTGTACATATAAATGTAACAAA [XGTACX_site5025]”, the “gcPBM binding intensity (ln)” value came to 11.3 ± 0.76.
As to “AATACATATAAAAGTACACACACACCCATATATATA [CACACA_site8220]”, the “gcPBM binding intensity (ln)” value amounted to 11.6 ± 0.97.
For “ATAGAATACATATATGAACACACAGAGTTTTAAAAA [CACACA_site8879]” the value was 10.15 ± 0.042; for “TAAATATCTAAAGACTGTACAATTAAATATAAACAT [XGTACX_site1450]”, 11 ± 0.7.
For the sequence “TTTTGTAACCTATGCACGCACACAAGAAAAAAACAA [CACACA_site3776]”, the “gcPBM binding intensity (ln)” value was 10.7 ± 0.59.
Under “GAAAATAAAAAAAATAAAAAAAATAAAAAAAATTAT [XGTACX_negctrl_site443]” stands 9.43 ± 0.11.
Under “ATACCATAAATATTGTGTACATAAATATGTTAGTAA [XGTACX_site6077]” stands 11.6 ± 1.1; under “TTTTAGAAATTTACTAAACTTTATATAACTATTGAA [TGCATGCA_negctrl_site280]”, 9.68 ± 0.014; under “CATGTTTATGCCGTTTGTACATATATATCTAAAAAA [XGTACX_site4336]”, 10.9 ± 0.6.
For “CACGTATATATATATACACACACATATATATATGTA [CACACA_site7948]” the value was 10.08 ± 0.071.
Consider TTTTTGTTCTATATGGTGCATGTTTATATTCGTATT, for which the “gcPBM binding intensity (ln)” value came out at 10.2 ± 0.19.
Regarding “ATTAGCAACATTGATAAATATAAACACACGAAAACA [TGCATGCA_negctrl_site97]”, the “gcPBM binding intensity (ln)” value was 10.115 ± 0.007.
For “AATGAATCCTTATATACACACATTATTATATTATAT [CACACA_site3108]”, the “gcPBM binding intensity (ln)” value turned out to be 10.07 ± 0.035.
In the case of “GTTCATATCTTTTGAGCACACATATATATATATAAA [CACACA_site9099]”, the “gcPBM binding intensity (ln)” value stood at 10.1 ± 0.11.
Turning to “ATGATTATAATTTAAAATATTTTACATAACCATTTC [GTGCAC_negctrl_site297]”, the “gcPBM binding intensity (ln)” value amounted to 9.79 ± 0.099.
On to “TTTAGCTATTATAGCTGTACAATGATAAAATAAATT [XGTACX_site6318]”, for which the “gcPBM binding intensity (ln)” value came to 10.7 ± 0.39.
With “ATAAGTAAAAATAAAAAAAAAATATATATATATATA [CACACA_negctrl_site1816]”, the “gcPBM binding intensity (ln)” value was 9.82 ± 0.48.
As to “TTTTTTATATATACATATATATAAATATATATAACT [GTGCAC_negctrl_site385]”, the “gcPBM binding intensity (ln)” value worked out at 9.59 ± 0.2.
For “ATATTAATAATATATGCATGCATTAACATATTGAAA [TGCATGCA_site951]” the value was 9.725 ± 0.064; for “GTATGTATGTATATATGTACACATTATTATTTAATG [XGTACX_site5802]”, 11.6 ± 1.
Take “ATTGATACATCCAATACACACTACATATAATGATGT [CACACA_site8561]”: the “gcPBM binding intensity (ln)” value is 10.3 ± 0.2.
For “GAGAAAAGGAAATTCACACATATAAAGAAAGATCTA [CACACA_site5420]” the value was 9.865 ± 0.064; for “TTTTTTTTGATATATACACACAATAAATAAATATAA [CACACA_site7400]”, 10.1 ± 0.29.
Regarding “ATTTATTATTATATCACACATAATATATTAAATGAT [CACACA_site5821]”, the “gcPBM binding intensity (ln)” value worked out at 9.735 ± 0.049.
For “TGTTTGCTTATGTGTTAAATATATATATATATATAT [TGCATGCA_negctrl_site218]” the value was 10.1 ± 0.25.
Under “ATTTTAGGAAAAAAAAGTACATATAATTTTTTATAT [XGTACX_site6954]” stands 11.4 ± 0.96; under “CGAACACAAACACAAACACACATCAGATATAAATAT [CACACA_site6736]”, 9.85 ± 0.014; under “ATGTTCGATGATAAATGTACAAAAATAATGGAAGTA [XGTACX_site1916]”, 10.9 ± 0.41.
Consider “TATAAAAATATTGAAAGTACTTATTAAAATATTATT [XGTACX_site3701]”, for which the “gcPBM binding intensity (ln)” value is 11 ± 0.64.
For “TTTCCTAGCACATGCACACAAAAAAAAAAAAAAAAA [CACACA_site1404]” the value was 10.2 ± 0.55; for “CTTGCAAAAAGTATATGTACATATATATATATATAT [XGTACX_site5792]”, 11.2 ± 0.7.
Regarding “TATGGAGAAATAAATAGTACGTATTTTATTTAAAAA [XGTACX_site3129]”, the “gcPBM binding intensity (ln)” value was 11.2 ± 0.76.
